Drawing on PubChem BioAssay AID1745853 (National Center for Advancing Translational Sciences (NCATS), 2022), this text covers activity change, negative = inhibition for 29 compounds.

Each structure is given as a SMILES string. The list shows a part of the results. The main result of the screen is listed elsewhere. These columns were measured beside it and carry no call.

What all share (assay): Primary Screen for Target Class Profiling of Small Molecule Inhibitors of Methyltransferases
Experiment [1] concerns the target Glycine N-methyltransferase (Homo sapiens) (UniProt Q14749). The conditions noted are these: purified enzyme, MTase-Glo SAH luminescence; measured here: GNMT inhibition; at 40 µM; stronger effect = lower value. Put shortly: (§1)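 Each enzyme was reacted with SAM and its substrate, with compounds tested once at 40 uM; SAH formed was read by MTase-Glo luminescence.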
The target in experiment [2] is Guanidinoacetate N-methyltransferase (Homo sapiens) (UniProt Q14353). The settings on record: purified enzyme, MTase-Glo SAH luminescence; measured here: GAMT inhibition; at 40 µM; stronger effect = lower value. Put shortly:
as §1

In experiment [3] the target is Histamine N-methyltransferase (Homo sapiens) (UniProt P50135). The conditions noted are these: purified enzyme, MTase-Glo SAH luminescence; measured here: HNMT inhibition; at 40 µM; stronger effect = lower value. Put shortly: as §1
The target of experiment [4] is Nicotinamide N-methyltransferase (Homo sapiens) (UniProt P40261). The conditions noted are these: purified enzyme, MTase-Glo SAH luminescence; measured here: NNMT inhibition; at 40 µM; stronger effect = lower value. The essentials:
as §1

Experiment [5] concerns the target Phenylethanolamine N-methyltransferase (Homo sapiens) (UniProt P11086). The settings on record: purified enzyme, MTase-Glo SAH luminescence; measured here: PNMT inhibition; at 40 µM; stronger effect = lower value. Put shortly:
as §1
On the % scale 0 is the no-effect control and ±100 the full control effect.

Regarding `CN[C@@H](C)c1nc(C2CCOCC2)nn1CC1CCCCC1`, the activity change, negative = inhibition in experiment [1] is -2.7%; in experiment [2], -2.31%; in experiment [3], -0.292%; in experiment [4], -6.23%; in experiment [5] it was -0.088%.

For `Cc1cccc(N(C)C(=O)Cn2c(=O)oc3cc(S(=O)(=O)N4CCCCC4)ccc32)c1`, the activity change, negative = inhibition in experiment [1] was -1.19%; in experiment [2], 1.75%; in experiment [3], 0.04%; in experiment [4], 4.34%; in experiment [5], -4.2%.

On to `COCC(=O)N(C1CCOCC1)C1CCN(C(=O)c2cccnc2C)CC1`, for which the activity change, negative = inhibition worked out at 0.751% in experiment [1]; 0.203% in experiment [2]; 0.061% in experiment [3]; 4.33% in experiment [4]; 2.74% in experiment [5].

On to `CNc1nc(Nc2cnn([C@H]3CCN(C4COC4)C[C@@H]3F)c2Cl)ncc1C(F)(F)F`, for which the activity change, negative = inhibition in experiment [1] is 3.07%; in experiment [2] it was 3.91%; in experiment [3], 12.8%; in experiment [4], -17.1%; in experiment [5], 2.71%.

Consider `CSc1ccc(CN2C(=O)c3cc4ccccc4n3CC2(C)C(=O)NCc2ccccc2)cc1` (stereo unspecified), for which the activity change, negative = inhibition was 7.96% in experiment [1]; 0% in experiment [2]; 10.2% in experiment [3]; 10.3% in experiment [4]; 2.75% in experiment [5].

In the case of `O=C1C=CC(O)(/C=C/C(=O)OC[C@H]2O[C@@H](Oc3ccc(O)cc3)[C@H](O)[C@@H](O)[C@@H]2O)C=C1`, the activity change, negative = inhibition in experiment [1] is -6.71%; in experiment [2] it was -9.2%; in experiment [3] it was 2.83%; in experiment [4], -15.3%; in experiment [5], -3.41%.

In the case of `CCNC(=O)[C@@H]1C[C@H](NC(=O)c2ccco2)CN1C(=O)Cn1nccc1C`, the activity change, negative = inhibition in experiment [1] is -0.086%; in experiment [2] it was 1.56%; in experiment [3], 0.259%; in experiment [4], 4.08%; in experiment [5] it was 6.01%.

For `COc1cc(NC(=O)Cn2nc3n(CC(C)C)c(=O)c4ccccc4n3c2=O)cc(OC)c1`, the activity change, negative = inhibition is -0.201% in experiment [1]; 0% in experiment [2]; 4.64% in experiment [3]; -1.48% in experiment [4]; -1.86% in experiment [5].

For `COC(=O)CNC(=O)N1CCCC1c1nc(CCOCC2CC2)no1` (stereo unspecified), the activity change, negative = inhibition is -1.92% in experiment [1]; -3.41% in experiment [2]; -0.743% in experiment [3]; -5% in experiment [4]; -1.43% in experiment [5].

As to `COC1CC(OC2CCC3(C)C(=CCC4C3CCC3(C)C(C(C)O)CCC43O)C2)OC(C)C1OC1OC(C)C(OC2OC(COC3OC(COC4OC(CO)C(O)C(O)C4O)C(O)C(O)C3O)C(O)C(O)C2O)C(OC)C1O` (stereo unspecified), the activity change, negative = inhibition in experiment [1] was 4.14%; in experiment [2] it was 6.27%; in experiment [3], 9.03%; in experiment [4], -5.12%; in experiment [5], 6.71%.

Regarding `Cc1cc(C)c(NC(=O)c2ncn3c2C(=O)N(C2CC2)C(C)(C(=O)NCc2ccc(F)cc2)C3)c(C)c1` (stereo unspecified), the activity change, negative = inhibition in experiment [1] came to 4.5%; in experiment [2], 0.421%; in experiment [3] it was 10.4%; in experiment [4] it was 6.05%; in experiment [5], 9.67%.

In the case of `Clc1ccc(C(Cn2ccnc2)OCc2c(Cl)cccc2Cl)c(Cl)c1` (stereo unspecified), the activity change, negative = inhibition in experiment [1] is -4.18%; in experiment [2], -1.18%; in experiment [3], 7.51%; in experiment [4], -66.2%; in experiment [5] it was -2.76%.

For the compound `COc1ccc(C2CC(=O)c3cc(-c4nc(-c5cccc([N+](=O)[O-])c5)cs4)c(=O)n(-c4ccccc4N)c3C2)cc1` (stereo unspecified), the activity change, negative = inhibition was -52.5% in experiment [2], -55.1% in experiment [4] and -15.2% in experiment [5].

Take `Cc1ncsc1CN1CCC2(CC1)CC(CC(=O)NCc1ccncc1)CCO2` (stereo unspecified): the activity change, negative = inhibition in experiment [1] was 0.249%; in experiment [2], -2.84%; in experiment [3] it was 0.068%; in experiment [4], -9.47%; in experiment [5] it was -0.698%.

Take `O=C(CN1C(=O)C2(CCCC2)NCC1c1cc(F)cc(F)c1)Nc1ccc2c(c1)CC1(C2)C(=O)Nc2ncccc21` (stereo unspecified): the activity change, negative = inhibition in experiment [1] was 0.362%; in experiment [2] it was 6.43%; in experiment [3] it was 8.66%; in experiment [4] it was -17.7%; in experiment [5] it was 1%.

Take `O=C(Cn1c(=O)oc2cc(S(=O)(=O)NCc3ccccc3)ccc21)NCCCc1ccccc1`: the activity change, negative = inhibition in experiment [1] is 13.9%; in experiment [2] it was 0.862%; in experiment [3], 11.7%; in experiment [4], 3.59%; in experiment [5], 7.94%.

Turning to `O=C(c1cnc2ccccn12)N1CCc2c(nc(-c3ccccc3)[nH]c2=O)C1`, the activity change, negative = inhibition in experiment [1] is -2.15%; in experiment [2], -3.24%; in experiment [3], 0.234%; in experiment [4], 0.871%; in experiment [5], -0.585%.

Regarding `O=C(CCc1nnc2n(Cc3ccc(Cl)cc3)c(=O)c3ccccc3n12)NCCc1c[nH]c2ccccc12`, the activity change, negative = inhibition was -0.146% in experiment [1]; 2.31% in experiment [2]; -13.5% in experiment [3]; 9.42% in experiment [4]; 1.18% in experiment [5].

For the compound `Oc1ccc(CC2NCCc3cc(O)c(O)cc32)cc1` (stereo unspecified), the activity change, negative = inhibition in experiment [1] is -4.1%; in experiment [2], -7.95%; in experiment [3], -18.4%; in experiment [4], -18.7%; in experiment [5] it was -2.47%.

For the compound `CCn1cc(C2=NOC(C(=O)Nc3c(C)n(C)n(-c4ccccc4)c3=O)C2)c(C)n1` (stereo unspecified), the activity change, negative = inhibition was 5.8% in experiment [1]; 3.09% in experiment [2]; 8.33% in experiment [3]; -4.99% in experiment [4]; 6.25% in experiment [5].

Regarding `COc1ccc(NC(=O)CCc2nnc3n(Cc4ccccc4)c(=O)c4ccccc4n23)cc1OC`, the activity change, negative = inhibition is -4.97% in experiment [1]; 4.9% in experiment [2]; 2.91% in experiment [3]; 11.9% in experiment [4]; 0.199% in experiment [5].

Consider `COc1cccc(CN2C(=O)c3cc4c(OC)ccc(OC)c4n3CC2(C)C(=O)NC2CCCCCC2)c1` (stereo unspecified), for which the activity change, negative = inhibition is 32.7% in experiment [1]; 0% in experiment [2]; -7.67% in experiment [3]; -22.5% in experiment [4]; -12% in experiment [5].

With `O=C(Nc1cccc(Nc2cc(Nc3cccc(C(F)(F)F)c3)ncn2)c1)C1CC1`, the activity change, negative = inhibition in experiment [2] is -41%; in experiment [4] it was -76.9%; in experiment [5], -62%.

`COc1ccc(CCN(C)CCCOc2nsc(-c3ccccc3)n2)cc1OC`: the activity change, negative = inhibition in experiment [1] is -9.72%; in experiment [2], 11.8%; in experiment [3] it was -65.2%; in experiment [4] it was -29.3%; in experiment [5], -2.74%.

On to `CC(=C\C(C)O)/C=C(\C)C(=O)CC1CC(CC(N)=O)CC(=O)O1` (stereo unspecified), for which the activity change, negative = inhibition is 0% in experiment [1]; 7.34% in experiment [2]; 9.12% in experiment [3]; -5.49% in experiment [4]; 6.33% in experiment [5].

For `CCc1nc(-c2c3n(c(=O)n(CC(=O)NCc4cccc(OC)c4)c2=O)CCCC3)no1`, the activity change, negative = inhibition is -0.981% in experiment [1]; -1.71% in experiment [2]; -0.92% in experiment [3]; -3.53% in experiment [4]; -4.48% in experiment [5].

For the compound `CC1CCCC(NC(=O)C2(C)Cn3c(nc4ccccc43)C(=O)N2Cc2ccc(F)cc2)C1C` (stereo unspecified), the activity change, negative = inhibition was 3.51% in experiment [1]; 2.15% in experiment [2]; 5.12% in experiment [3]; -2.29% in experiment [4]; 1.76% in experiment [5].

Take `O=C(c1ccccn1)N1C[C@@H]2C[C@H](C1)c1ccc(NS(=O)(=O)Cc3ccccc3)c(=O)n1C2`: the activity change, negative = inhibition is -5.93% in experiment [1]; -7.91% in experiment [2]; -3.9% in experiment [3]; -6.65% in experiment [4]; -8.28% in experiment [5].

With `O=C(NCc1cccc(C(F)(F)F)c1)c1nn(CCOc2ccccc2)c2c1CNCC2`, the activity change, negative = inhibition in experiment [1] was -1.42%; in experiment [2], -2.94%; in experiment [3], -18.8%; in experiment [4], -3.63%; in experiment [5], -6.64%.
